# Data reported in the supplement of paper PMC3334620.
# In all, about 33,000 sequences were measured (“E-score (-0.5 to 0.5)”: median about -0.012, highest 2% from about 0.27 on). The list shows a part of the results.
# Target: T1, Vhr1 (UniProt P40522)
# T1 sequence: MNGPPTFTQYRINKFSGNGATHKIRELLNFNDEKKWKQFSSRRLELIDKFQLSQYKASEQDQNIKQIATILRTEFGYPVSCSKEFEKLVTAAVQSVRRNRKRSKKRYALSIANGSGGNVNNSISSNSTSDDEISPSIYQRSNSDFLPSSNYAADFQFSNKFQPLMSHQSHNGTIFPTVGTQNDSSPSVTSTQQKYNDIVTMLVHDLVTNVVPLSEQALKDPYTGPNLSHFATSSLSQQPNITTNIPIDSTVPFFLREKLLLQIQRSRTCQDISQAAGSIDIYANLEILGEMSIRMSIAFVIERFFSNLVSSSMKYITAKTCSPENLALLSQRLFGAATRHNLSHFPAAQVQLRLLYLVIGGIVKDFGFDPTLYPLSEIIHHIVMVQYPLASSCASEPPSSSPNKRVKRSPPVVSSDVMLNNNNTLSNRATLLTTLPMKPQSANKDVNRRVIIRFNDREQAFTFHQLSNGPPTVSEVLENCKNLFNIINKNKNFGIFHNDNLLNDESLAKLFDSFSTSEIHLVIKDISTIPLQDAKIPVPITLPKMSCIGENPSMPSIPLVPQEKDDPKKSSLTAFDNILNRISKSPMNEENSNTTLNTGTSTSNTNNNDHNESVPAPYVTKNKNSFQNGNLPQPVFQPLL
# Experiment: PBM E-score (8-mer binding enrichment) (E-score (-0.5 to 0.5)); higher = stronger / more preferred TF binding; most listed sequences are background and not binding sites
# Details: protein concentration: 200 nM; construct: GST-full length
# Outline: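 Yeast transcription factors, full-length or as DNA-binding domains, were expressed with a GST tag using PURExpress in vitro transcription/translation. At about 100-200 nM they were applied to universal all-10-mer Agilent arrays, double-stranded by primer extension on fresh or once-stripped slides. Fluorescent anti-GST detected bound protein, and masliner normalised the scans. E-scores for ungapped eight-base words, pooled with reverse complements, came from the Universal PBM Analysis Suite.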
row,Sequence,PBM E-score
1,GCGTGATA,-0.00623
2,AATTATAC,0.0204
3,AAAAGAGA,-0.16
4,ACGGTAGA,-0.0655
5,AGACAACG,0.0513
6,CGGATGAG,0.215
7,TCAGCTGA,0.138
8,ACTTTGCG,0.0985
9,ATGAGCAG,-0.0073
10,ACCATCCG,0.197
11,ATGCCGGG,-0.122
12,CCTACACA,0.142
13,ACCCATCG,0.25
14,GGACCTCC,-0.122
15,ATTCTCCC,0.131
16,CAGTCTGA,0.17
17,CGGTCGAA,-0.175
18,GCATTAGC,-0.213
19,ATTAAGAA,-0.148
20,GGGTACCA,-0.0543
21,ATCGCCTA,0.0387
22,ACAGAGTA,0.00135
23,GAGAAATA,-0.21
24,AATAAGGC,-0.195
25,ATCCAGAA,-0.00797

row,Sequence,PBM E-score
1,CACTTCAC,-0.105
2,AGCGCAAC,-0.145
3,CGGATTGC,-0.128
4,CTTTGAAC,-0.229
5,AAGTCAAG,-0.156
6,ATGTTCTG,0.0818
7,CCATTCCG,-0.14
8,TCAAACAA,-0.0913
9,GGTCTATA,-0.0175
10,CTTGCCAC,0.00934
11,GTTGGGCA,0.0111
12,AGTGCTTA,-0.14
13,AGTGGGCC,-0.222
14,GGTATTGA,-0.00982
15,GCCTTTAC,-0.213
16,AATACACT,0.0206
17,AAGTAGGT,-0.026
18,GTGTAAAA,-0.242
19,CTCCTATC,0.0917
20,ATGCGGGA,0.0413
21,ATTTTAAA,-0.169
22,ACGTTTTA,-0.138
23,GACTATAC,0.322
24,TACCTTAA,-0.224
25,CAGTCAGA,0.224

row,Sequence,PBM E-score
1,CCGGGGGC,-0.057
2,ACAGAGCT,-0.0507
3,CCGTATAA,0.129
4,AAATCGTT,0.0492
5,CCCTGCCA,0.0897
6,CCAGGCAG,-0.0625
7,ACAAATAG,0.0245
8,CACCCCAA,0.127
9,CCCGTTTA,-0.0994
10,ACGGAAAT,-0.0417
11,GAACGCAA,-0.0402
12,CTTGCGAA,0.0595
13,ACTGCGTC,-0.0401
14,ATCGTCGG,0.101
15,ACTCGTTC,0.0238
16,TAGCACCA,0.0215
17,GCGAGTCA,0.455
18,CGCAACTC,0.0218
19,AGGTTAGG,0.12
20,AACAAAAA,0.0406
21,ACCCAGGT,0.0206
22,ACTCTTTA,-0.0168
23,AATGCGTA,-0.0521
24,GTGCGTGA,0.16
25,CTCGCGCC,0.0702

row,Sequence,PBM E-score
1,AGCGACTA,0.211
2,CAAGGCTA,-0.00405
3,ACATCCTA,0.0428
4,CTTGCATC,-0.0129
5,ATGCCGCC,-0.133
6,CATGCAAC,0.131
7,AAAAGACC,-0.212
8,CCAGCGAC,0.105
9,CTAATAAC,-0.0351
10,AGTATAGG,-0.0334
11,ACCAATCC,0.052
12,AAACTGGT,0.173
13,CCTTGAAC,-0.121
14,GACACTGA,0.127
15,GAGTGTAC,-0.00291
16,GTAGCACA,0.055
17,CTCAAATA,-0.118
18,GGTAAGAC,0.0349
19,ACAAGGCC,-0.128
20,AGCTGGAT,0.173
21,CTTATACA,-0.0921
22,CTGATTTA,0.00054
23,AACCGGAT,0.0961
24,ATGTTCCG,0.0154
25,GATCATCC,0.141

row,Sequence,PBM E-score
1,ACAATTAG,0.0328
2,CCCGCACC,0.0419
3,AGAGACAT,0.095
4,AGTGACGA,0.139
5,AGAGTTTA,-0.085
6,CACGTCCG,-0.199
7,GGGGTTAA,-0.141
8,CGGACGGA,-0.134
9,AAAAGGTG,-0.153
10,ATACTAGG,0.0984
11,AAGGGCCC,-0.103
12,ATCACGCG,0.176
13,AGCGTACA,-0.0874
14,ATCATGGG,0.272
15,CCCCCGAG,-0.0369
16,AGGCCCGG,-0.234
17,AGAAGTTA,-0.173
18,CACAAGCA,0.0443
19,GGGCAACA,0.0901
20,GATGATAA,0.0353
21,ATTCAAGG,-0.0584
22,AACTGAGA,-0.114
23,CCCAATCG,-0.00353
24,ACCAGCGT,0.0656
25,GGTGCGTA,0.0599

row,Sequence,PBM E-score
1,AAAATTTG,-0.225
2,GGAGCACA,0.0648
3,AGCGCTCC,-0.126
4,ATGGTGTA,0.0975
5,CCACAGCA,0.088
6,ACCGCAAT,0.251
7,CATCTTGC,0.0744
8,AACACGCG,0.0101
9,AGCGTAAA,-0.0553
10,ATGCTAAA,-0.188
11,CAAAAATC,-0.209
12,ATTTGCCA,-0.315
13,AGATAACT,0.0464
14,GCGGATCA,0.0861
15,TCTCACCA,0.0878
16,CATATGCC,-0.0204
17,AAAAGCGT,-0.108
18,AAGCTATC,-0.0249
19,ATGTACGA,0.077
20,CAGGAACG,-0.096
21,GTAATTCA,-0.0794
22,GCCATGAC,0.0961
23,CGACAGGC,0.00361
24,ACGGGTAG,-0.0806
25,ACCTCCAG,-0.0853

row,Sequence,PBM E-score
1,GTAACCGA,0.118
2,ATGAAGTG,-0.149
3,CTGAGAGA,0.0295
4,ATCAGTGC,0.124
5,AGTTCTAA,-0.219
6,ACCACGCA,0.0308
7,CATACGCC,0.13
8,GAGTTGGC,0.161
9,CCGGAAGA,-0.0401
10,AGTAAGGC,-0.0517
11,AAACCATC,0.273
12,AACCGACG,0.0236
13,CCCCAATA,-0.152
14,GTTCGATA,0.123
15,TAAGTCGA,-0.102
16,ATCCGGGC,0.0847
17,AATCCCCG,-0.0461
18,AGGCCCCC,-0.252
19,CTGGATAA,-0.112
20,ACTTATGA,0.155
21,GCTTTTTA,-0.135
22,ACGTGAGA,-0.176
